Consider 22 molecules from publication PMC12136788.

Changes are numbered by the printed parent chain. Some of the results follow.

The chains are these.
T1: UNK ZnF1-3 (human, UniProt Q9C0B0 31-174)
T1 sequence: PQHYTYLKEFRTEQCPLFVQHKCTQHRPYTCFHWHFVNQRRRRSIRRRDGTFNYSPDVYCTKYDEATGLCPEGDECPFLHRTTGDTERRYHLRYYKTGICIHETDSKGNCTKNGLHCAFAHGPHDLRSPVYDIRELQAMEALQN

B1: chr2:130910683:130910684:-_ENSG00000136699_ENST00000351288|hu_hu|FALSE|FALSE (ssRNA)
RNA: GGGAGUUCUACAGUCCGACGAUCGGAACACAGAGCCGCCAUCUGUCCUGCAAAUCUGUGGUUGAUGGCAGACGACAGCCUAAAGAGUGUGCGGACCAAGCUGGCGAUCUCAUAGCUCCGGAUGGGCUGCAGCUCCGGGUCCCCCAACAGAGGAUUGAGCAUCA
B2: chr9:95013113:95013114:-_ENSG00000196305_ENST00000443024|hu_hu|hu_hu_hu_mus_False|88_98 (ssRNA)
RNA: GGGAGUUCUACAGUCCGACGAUCCUCAGUCAGAAAGGGUGUGUAGGGAGCCAUAAGUCUGCACAGAGAAAGCAGGACACUGAACAGUGUCUCCAGAGCCAUGACACAGUCUUCCACCCCACUCUCACCCUUUAACCUCCUCCUCAACAGAGGAUUGAGCAUCA
B3: chr8:22473583:22473584:+_ENSG00000158941_ENST00000389279|hu_mus|FALSE|FALSE (ssRNA)
RNA: GGGAGUUCUACAGUCCGACGAUCAGGUUCAGGAGGAGACACAACUUUUUCUGGAAGGCUCAGCAGCGUCUUAUAAAUUCUAUAGCCAAAAUCCCUCUGCAGCAUCUCUACAAACAGCUCAGCCAGCACCACUACCUCAAAAGACAACAGAGGAUUGAGCAUCA
B4: chr7:129114946:129114947:-_ENSMUSG00000034951_ENSMUST00000057576|mus_hu|FALSE|FALSE (ssRNA)
RNA: GGGAGUUCUACAGUCCGACGAUCAUCAACAAGCAUCAUUAAGCUGUUCUGCAUACCUGUUAGCUUGGCAGAAAUCACAGCUAUGUCCUGAGUCUUAAAUGUCUCCUCAAUAUCGGCGCUCAACGUGCUCCACUUAUCUGCUUCCAACAGAGGAUUGAGCAUCA
B5: chr10:33214929:33214930:-_ENSG00000150093_ENST00000302278|hu_hu|hu_hu_hu_mus_True|88_88 (ssRNA)
RNA: GGGAGUUCUACAGUCCGACGAUCAACAAGUUCAUUGAAAAACUCUCCUUUAUUAGUAAGACUAAGCACAUUUUUGUAGCUAAAUGGGCUGGUGCAGUUUUGUUCACUUGUACAAGGAUUUCUUAGCUUUGCUGGGGUUGUGCUCAACAGAGGAUUGAGCAUCA
B6: chr11:46405157:46405158:+_ENSG00000110492_ENST00000395566|hu_hu|hu_hu_hu_mus_False|18_98 (ssRNA)
RNA: GGGAGUUCUACAGUCCGACGAUCCCCUCCCCACUUUGGCUGGGGAGUGUGGGCGUGAGAGGACAGGCGUGAUUGACAGAGCUGACAGGAAGACAAAAGGCACUGGUGGGUUAUAUCUCGGGCCUGGGGGAGAGGAGGGCUCCGCAACAGAGGAUUGAGCAUCA
B7: chr10:33214929:33214930:-_ENSG00000150093_ENST00000302278|hu_hu|hu_hu_hu_mus_True|18_18 (ssRNA)
RNA: B5 RNA with U49C, A51G, U53C, A117G, U120C, U123G
B8: chr11:86533019:86533020:-_ENSMUSG00000047126_ENSMUST00000103186|perfect_dup|motif|central (ssRNA)
RNA: GGGAGUUCUACAGUCCGACGAUCAAGAAGAUGGGUGUGAACCACUGCACGUUUUAUAUCAUAUAAAUCAGUGAAAUGUUCGGAUGCACGCUGCAGUAGGCCAGCCUUUUCACACAGUUGAGCAAUAUGAGCCCGGUCAUAAUGCAACAGAGGAUUGAGCAUCA
B9: chrX:130621085:130621086:+_ENSMUSG00000031256_ENSMUST00000033609|mus_mus|motif|central (ssRNA)
RNA: GGGAGUUCUACAGUCCGACGAUCGUAAUAUCUUAAGUAUAUUAACUGUAAUCAAAUUUGUACUAUAGUUAGAAGCCAACGGUAUUGUCACUUUGUAUUGUUUGGAAUAACUGGAAAGGCCUGACGUACAUCAUGAGAUAAUUGCAACAGAGGAUUGAGCAUCA
B10: 57704371_57704491_741_3pUTR_ENSMUSG00000037788_ENSMUST00000114297|mouse|control|control (ssRNA)
RNA: GGGAGUUCUACAGUCCGACGAUCAGAAUAUCCAAGUUUUCCCUUGGACCACCCUAUCAGCAAGUAUCGGUGAGGAUGGGAAGGUAAACAAAAGGGCCUGUCCAUCCUCUUUGCCUUUGAUGUAGCAUCUUGCUACUUGUCCUUCAACAGAGGAUUGAGCAUCA
B11: 88651302_88651422_826_CDS_ENSG00000135052_ENST00000388712|human|control|control (ssRNA)
RNA: GGGAGUUCUACAGUCCGACGAUCACUGGGGGCUGGUGUCUGGGACUUGCUGUUACCAAGCACGUUUCCCUUCCCUUGUGGCACCUCUGUGUGUGGCAGGCCUGCUGCCUGCAGCCUGGGCUGAGGCUCACUGAGGGCUUGGAGCAACAGAGGAUUGAGCAUCA
B12: chr1:153210542:153210543:+_ENSMUSG00000023150_ENSMUST00000023918|mus_mus|motif|central (ssRNA)
RNA: GGGAGUUCUACAGUCCGACGAUCUUGCAGUUAGCAACAUCUACCCCACCCACCCUCCUUAUUCACAAGUGUACCUCGGCGGAACACAAUUACAUCACUAAGCCUGUUAGUUUGGGGUUCUUAAAUUUGUUAAAACUGGAAAAUCAACAGAGGAUUGAGCAUCA
B13: chr1:135975629:135975630:-_ENSMUSG00000020423_ENSMUST00000020692|mus_hu|FALSE|FALSE (ssRNA)
RNA: GGGAGUUCUACAGUCCGACGAUCGAAGCCCACGGCGGCGGCGAUCUCCGGGAGCAUGUCGGUUCCCUUCCCGUGGCUCAUGUCGCGCGCGGCUCGGGCUCAGUGAGAGGUCUCGGGUGGGAAGUGCGGGUCCACAAGACAGCGCAACAGAGGAUUGAGCAUCA
B14: chr3:31678068:31678069:+_ENSG00000163527_ENST00000295770|hu_hu|FALSE|FALSE (ssRNA)
RNA: GGGAGUUCUACAGUCCGACGAUCUUUGCAUUAGAGAAACAUGAAAAUAAAUAUAAUUCAAGGAAGUAUAAUGAUUCUUCUAAUAUGUCUUUCUCAGACCUGUACUAGUUUACCGGUUCAAGAAGCUCUCAUCACAUUUUGUCACAACAGAGGAUUGAGCAUCA
B15: 69817489_69835357_1531_3pUTR_ENSMUSG00000053477_ENSMUST00000078486|mouse|control|control (ssRNA)
RNA: GGGAGUUCUACAGUCCGACGAUCCCAACCAUGAGCGAGUGUCUGUUGGCUGAGAGAAGACUAGUUCCGUACCCUGAGCCCAGGCUACCCAUCGCUCCGUUGUGGGAGGGUCCCAUGAUCCCAUGCAUGUCCCCAUGGCCACCACAACAGAGGAUUGAGCAUCA
B16: chr2:85770095:85770096:+_ENSG00000168906_ENST00000306434|hu_hu|FALSE|FALSE (ssRNA)
RNA: GGGAGUUCUACAGUCCGACGAUCAUCCAGAUCCCUGACAAUGACCCCAGGGCGGAGAUCGAAAUUCUUCUUCACAAUCUCUAAUAGCUCUCUCUCACUCUUCUGAGAGGUACCAUAAUGGAAAAUGGAGAUAGAUAAUGGAUGCAACAGAGGAUUGAGCAUCA
B17: 112746645_112746765_1893_CDS_ENSMUSG00000046441_ENSMUST00000056972|mouse|control|control (ssRNA)
RNA: GGGAGUUCUACAGUCCGACGAUCCUCCACAAGCUGGAUUUCCAGUGGCGCGGGCAUCUGGAGAUCACAGACGGCCGGUGAGCCCACCAGCAGGCACUUGACUGGGCCGCUGGGUUCCGCACCCUGUUCGUCCGGAAGGCACUUCAACAGAGGAUUGAGCAUCA
B18: chr11:22897662:22897663:+_ENSMUSG00000007739_ENSMUST00000173867|mus_hu|FALSE|FALSE (ssRNA)
RNA: GGGAGUUCUACAGUCCGACGAUCGCAAAACUGAAUAAGCCCAAUCUUGGCCUUUUCAACUCUGGUUAUGCCAGAAUUUGACACUUUUUGGGUGAGAACCAGCCCUUCCACCAACUCACAGUCAUCAAUUGUCCCACCAAGCUUCAACAGAGGAUUGAGCAUCA
B19: 100944380_100944500_254_CDS_ENSMUSG00000001755_ENSMUST00000001806|mouse|control|control (ssRNA)
RNA: GGGAGUUCUACAGUCCGACGAUCCUGCACAGGGCUGGCCUGAGGCUGAGCGGGUCCCCCCAGGUUCAUGCCCGGCUGCAGGUGCACAUAGAGGGUGUGAUUCACCAGGCGGGACGCCGAGGUCAGGAUGGGAGGCAGGCGUGCCAACAGAGGAUUGAGCAUCA
B20: 67946858_67948415_764_3pUTR_ENSMUSG00000079614_ENSMUST00000025421|mouse|control|control (ssRNA)
RNA: GGGAGUUCUACAGUCCGACGAUCAUUUGGAGCAAACGCGAUAUCAUGGACGGGGUCUGUGACUGUCAUAAGAGUCUCAGCUUUCGCAUAUUUCCUGGUAUUUUCAUUGUAUUCAAAAAUCUGAACCUUGGCCAUUGAAUUUGGCAACAGAGGAUUGAGCAUCA
B21: chr19:54062153:54062154:+_ENSMUSG00000024976_ENSMUST00000025932|mus_hu|FALSE|FALSE (ssRNA)
RNA: GGGAGUUCUACAGUCCGACGAUCUUGGCUGAUGGUACUUUGGGAUCUUUUUCUUUAGAGUCUUUUUCUUUUCCUAAACUACUACUCAUGGUGACUCAAGCCUGGACAAAAACUACAUGAACUCCUUUUAUUUUCCAGUAAUUGCAACAGAGGAUUGAGCAUCA
B22: chr12:42180722:42180723:-_ENSMUSG00000036295_ENSMUST00000043884|mus_hu|mus_mus_mus_hu_True|48_48 (ssRNA)
RNA: GGGAGUUCUACAGUCCGACGAUCCUGUAGGAGAAGAAUCUGUGUGUUAGCUGGCAAUCUGGCUGGGAAAGUUAAAAGACCUAAAUCAUUACAGUCCACUGUAGAUGCUUCCAUAUAAAUGGAUCUGGGUGUAAACCAAGGCCUCAACAGAGGAUUGAGCAUCA

This test addresses T1, UNK ZnF1-3. The test can be described thus: nsRBNS (natural sequence RNA bind-n-seq); RBNS binding buffer (assumed for nsRBNS): 25 mM Tris pH 7.5, 150 mM KCl, 3 mM MgCl2, 0.01% Triton X-100, 500 ug/ml BSA, 20 U/ml SUPERase-In, 4 C; UNK is unkempt and MSI1 is Musashi-1; names of the RNAs are library labels; protein concentration not given here; high values mean tight binding.
Regarding B1, the binding signal is 0.822 enrichment R. Turning to B2, the binding signal was 1.16 enrichment R. B3 displayed a binding signal of 2.18 enrichment R.

For the molecule B4, the binding signal came out at 0.811 enrichment R. B5 displayed a binding signal of 0.64 enrichment R.

As to B6, the binding signal came to 2.82 enrichment R. As for B7, the binding signal was found to be 0.947 enrichment R. Take B8: the binding signal is 1.24 enrichment R. As for B9, the binding signal worked out at 0.932 enrichment R. In turn, B10 showed a binding signal of 0.529 enrichment R. The same measure for B11: 0.43 enrichment R. The figure for B12 is 1.67 enrichment R; for B13 it is 1.14 enrichment R; for B14 it is 0.854 enrichment R. The same measure for B15: 0.794 enrichment R; for B16: 0.89 enrichment R. In the case of B17, the binding signal amounted to 0.788 enrichment R. Take B18: the binding signal is 0.874 enrichment R. For the molecule B19, the binding signal came to 2.13 enrichment R. The same measure for B20: 1.27 enrichment R. The same measure for B21: 0.711 enrichment R; for B22: 1.24 enrichment R.
